Assay results taken from PubChem BioAssay AID686978 (National Center for Advancing Translational Sciences (NCATS), 2013).
In all, about 420,000 compounds went through this assay and about 64,000 (15%) were called active. This list was built around the results that the source calls inconclusive (neither active nor inactive); the mix of calls is not that of the screen. Calls come from the whole dose curve; as a rule, active = well fitted inhibition curve with a large enough effect; inconclusive = small, poorly fitted or top-dose-only effect; inactive = flat fitted curve, though single readings scatter. Potencies of inconclusive entries are left out as doubtful fits.

assay: qHTS for Inhibitors of human tyrosyl-DNA phosphodiesterase 1 (TDP1): qHTS in cells in absence of CPT; conditions: DT40 Tdp1-/- hTDP1 cells, no CPT, ATP luminescence, 48 h; activity change, negative = growth inhibition: at 46.2 µM (top of the series) unless noted; note: nearly all actives have a fitted effect of over 55% in size
In short: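 No-CPT arm: Tdp1-/-;hTDP1 DT40 cells (400/well) plus compounds, incubated ≥48 hr at 37 °C. Readout CellTiter-Glo luminescence.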
% is set by controls: 0 for no effect and ±100 for the full control effect; potency is the fitted concentration of half-maximal effect; tags give direction and shape of the fitted curve.

Compound	activity change, negative = growth inhibition	Potency
COc1ccccc1CNC(=O)CN(CCc1ccccc1)S(C)(=O)=O	inactive: -26.9%	
CC(=O)Nc1ccc(Nc2cc(C)c3ccccc3n2)cc1		inconclusive [inhibitor, single point]
CCN(CC)CCSc1nnc2c3cc(F)ccc3n(C)c2n1		inconclusive [inhibitor, single point]
Cc1ccc(S(=O)(=O)N(C)C)cc1NC(=S)NC(C)CCCC(C)C (centres undefined)		inconclusive [inhibitor, single point]
O=C(COc1ccc(Cl)cc1[N+](=O)[O-])N/N=C/c1cccs1		active: 29.1 µM
CCOC(=O)C1=C(N)OC2=C(C(=O)CCC2)C1c1cccnc1 (centres undefined)		inconclusive [inhibitor, single point]
COCCNC(=O)C1CCCN(Cc2ccc(C(C)C)cc2)CC1 (centres undefined)		inconclusive [inhibitor, single point]
O=C1[C@@H](Oc2ccccc2)[C@@H](c2ccccc2)N1c1cccnc1		active: 13 µM
Cc1ccc(/C=C/C(=O)N2CCc3ccccc3C2)cc1		inconclusive [inhibitor, single point]
CCN(CC(=O)Nc1ccc2c(c1)OCCO2)CC(=O)Nc1ccccc1C(F)(F)F	inactive: -22.6%	
Cc1ccc(CNCc2c(C(=O)O)n(Cc3ccc(C)cc3)c3cc(C)ccc23)cc1		inconclusive [inhibitor, single point]
O=C(NC1CCCCC1)c1cc2ccccc2cc1O	inactive: -29.9%	
CCOC(=O)c1c(C)[nH]c(CCC(=O)Nc2ccc(Cl)cc2C)c1C		inconclusive [inhibitor, partial curve]
COCCn1c(-c2ccc(F)cc2)nc2oc3cc(OC)ccc3c(=O)c2c1=O	inactive: -28.6%	
Cc1ccc(C)c2c(/C=C/c3ccc(N(C)C)cc3)ccnc12		inconclusive [inhibitor, single point]
CCOc1ccc(N(C)Cc2cc(=O)oc3ccc(OC)cc23)cc1		inconclusive [inhibitor, single point]
Cc1ccc(-c2nc3cccnc3o2)cc1NC(=O)COc1ccc(C(C)(C)C)cc1		active: 9.2 µM
COc1ccc(CN2C(=O)CCC2(C)c2nc3ccccc3[nH]2)cc1 (centres undefined)	inactive: 18.2%	
CC(C)NC(=O)C1CCN(Cc2cccc(OCc3ccccc3)c2)CC1	inactive: -41.5%	
Cc1ccc(-c2noc(CN(C(=O)COc3cc(C)cc(C)c3C)C(C)C)n2)cc1		inconclusive [inhibitor, single point]
Cc1noc(C(=O)N2CC3(C)CC2CC(C)(C)C3)c1Cl (centres undefined)		active: 18.4 µM
CCn1nc(C)cc1C(=O)N1CCCC(N2CCN(Cc3ccc4c(c3)OCO4)CC2)C1 (centres undefined)		inconclusive [inhibitor, single point]
CCc1cccc(NC(=S)N(CCN(C)C)C(C)c2ccncc2)c1 (centres undefined)		inconclusive [inhibitor, single point]
O=C(COC(=O)c1c(Cl)cccc1Cl)Nc1cccc(S(=O)(=O)NC2=NCCCCC2)c1	inactive: 13.1%	
COc1ccccc1C(c1nnnn1Cc1ccco1)N1CCN(c2cccc(C)c2C)CC1 (centres undefined)		active: 16.4 µM

Compound	activity change, negative = growth inhibition	Potency
COc1ccc(CCNS(=O)(=O)c2ccc3c(c2)oc(=O)n3C)cc1OC	inactive: -8.29%	
O=C(Nc1nnc(-c2ccc3c(c2)CCCC3)o1)c1c(F)cccc1F	inactive: -19%	
COc1ccc(-c2noc(CNS(=O)(=O)c3ccc(Br)cc3)n2)cc1OC		inconclusive [inhibitor, single point]
CC1CCCCN1S(=O)(=O)c1coc(C(N)=O)c1 (centres undefined)	inactive: 0.138%	
O=C(Nc1ccccc1C(=O)N1CCCCC1)c1ccco1	inactive: -1.83%	
CC(Sc1nc(NCc2ccccc2)nc(N(C)C)n1)C(=O)Nc1ccccc1 (centres undefined)		active: 20.6 µM
Cc1occc1-c1nnc(SCC(=O)Nc2nc(C(C)(C)C)cs2)o1		active: 10.3 µM
OCCOCCOCCn1c2ccccc2c2ccccc21		inconclusive [inhibitor, single point]
Cc1ccccc1Cn1cccc1/C=C1/C(=N)N2C=CSC2=NC1=O		active: 29.1 µM
Cc1cc(/C=C(\C#N)C(=O)NCc2ccco2)c(C)[nH]1	inactive: -9.29%	
Cc1c(Cl)cccc1NC(=O)CCN1C(=O)c2ccccc2Sc2ncccc21		inconclusive [inhibitor, partial curve, poor fit]
O=C(Cc1ccccc1)Nc1ccccc1C(=O)N1CCCCCC1	inactive: 24.2%	
CC(C)n1c(CSCc2ccc(Cl)cc2Cl)n[nH]c1=S		inconclusive [inhibitor, single point]
Cc1cc(C)cc(NC(=O)N2CCCC2C(=O)Nc2ccc(-n3cnnn3)cc2)c1 (centres undefined)		inconclusive [inhibitor, partial curve]
CCOC(=O)c1[nH]c2ccc(OC)cc2c1NC(=S)N1CCN(c2cccc(Cl)c2)CC1		inconclusive [inhibitor, partial curve]
COC(=O)c1c(NC(=O)CS(=O)(=O)c2ccc(C)cc2)sc2c1CCCC2		active: 16.4 µM
COc1ccccc1-c1cnn2c(NCCc3ccccc3)cc(C)nc12		inconclusive [inhibitor, partial curve]
COc1ccc(CCNC(=O)c2cc3c(=O)n4ccccc4nc3n(CCN3CCOCC3)c2=N)cc1		active: 2.59 µM
O=C1CC(c2ccc(O)cc2)Oc2cc(O)ccc21 (centres undefined)	inactive: -4.15%	
COc1ccc(-c2cc(NC=O)c3ncc(-c4cccc(C(=O)NCCN(C)C)c4)n3c2)cn1		inconclusive [inhibitor, single point]
N#C/C(=C\c1c(N2CCN(c3ccccc3)CC2)nc2ccccn2c1=O)C(N)=O	inactive: -18.9%	
O=C(NCCOc1ccccc1)c1cc(C(=O)NCCOc2ccccc2)cc([N+](=O)[O-])c1		active: 18.4 µM
O=C(c1ccccc1)N1N=C(C(F)(F)F)CC1(O)c1ccccc1O (centres undefined)		inconclusive [inhibitor, partial curve, poor fit]
Cc1ccc(-c2cc(C(=O)N/N=C/c3ccoc3)c3ccccc3n2)cc1	inconclusive: -30.7% [inhibitor]	
